The campaign covered roughly 46,000 compounds. About 60 (0.1%) were called active. Not shown: some 3% with an inconclusive outcome. The call rests on the fitted dose curve; in most records, active means well fitted inhibition curve with a large enough effect; inconclusive means small, poorly fitted or top-dose-only effect; inactive means no such curve, though single readings can be large or run the other way. This is one part of the list.
Test: Primary qHTS assay for Inhibitors of ovarian cancer metastasis using an organotypic tumor microenvironment (TME) model. Further: nearly all actives have a fitted effect of over 65% in size.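 On activity change, negative = inhibition: plate controls were DMSO wells for no effect and tomatine positive control wells for full effect.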
Details: SKOV3ip1-GFP adhesion/invasion on 3D omental model, fluorescence; series mostly up to 45.8 µM; activity change, negative = inhibition: at the top concentration
Outline: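 Adhesion/invasion was scored as fixed GFP-labeled SKOV3ip1 cell counts (488/509 nm), normalized to DMSO and tomatine controls. Cancer cells in serum-free medium, with four compound doses (0.36-46 umol/L), sat 2 hr at RT then 16 hr at 37 C on a 48 hr fibroblast/mesothelial/ECM culture.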

outcome, inactive:
CCOc1ccccc1CNC(=O)Cn1c(=O)c2cccn2c2ccc(F)cc21
COc1ccccc1N1CCN(C(=O)Cn2ncc3c2-c2cc(C)ccc2OC3)CC1
CCOc1ccccc1NC(=O)Cn1c(=O)n(Cc2ccc(OC)cc2)c(=O)c2oc3ccccc3c21
COc1ccc(N(CC(=O)Nc2cc(OC)cc(OC)c2)S(=O)(=O)c2c(C)noc2C)cc1
COc1ccc(CCNc2ncnc3c2c(-c2ccccc2)cn3-c2ccc(Cl)cc2)cc1OC
Fc1ccc(-c2cc3ncc4c(n3n2)-c2cc(Cl)ccc2OC4)cc1
CCCCN(CC)CCNC(=O)c1cc2c(=O)[nH]c3ccccc3c2n1C
Cc1c(Cl)cccc1NC(=O)CN(CCc1ccccc1)S(=O)(=O)c1ccccc1
Cc1ccc(-c2nnn3c2nc(NCCc2ccc(Cl)cc2)c2ccccc23)cc1
COC(=O)c1ccc(NC(=O)NCCn2nnc3cc(S(=O)(=O)N(C)C)ccc32)cc1
Cc1ccc(-c2nc3ccccn3c2Nc2ccccc2C)s1
Cn1c(=O)c(=O)n(C)c2cc(S(=O)(=O)CCC(=O)Nc3ccc(F)cc3)ccc21

Activity change, negative = inhibition, inactive:
COc1ccccc1NC(=O)CC1Sc2ccc(C(F)(F)F)cc2NC1=O (stereo not drawn) -19.7%
Cc1c(O)cccc1C(=O)N[C@@H](CSc1ccccc1)[C@H](O)CN1C[C@H]2CCCC[C@@H]2C[C@@H]1C(=O)NC(C)(C)C 2.03%
COCCN1CCc2nc(SCC(=O)Nc3ccc(C)c(Cl)c3)[nH]c(=O)c2C1 7.48%
COc1ccc(Nc2nc3ccc(C)cc3nc2-n2nc(C)cc2C)cc1Cl 11.8%
CC1CCCCN1Cc1c(O)ccc2c(=O)c(-c3ccc(Cl)cc3)c(C(F)(F)F)oc12 (stereo not drawn) -2.33%
CCOc1ccc(C(=O)Nc2ccc3c(c2)CCCN3S(=O)(=O)c2ccc(C)cc2)cc1 3.89%
CC1=C(C(=O)OCc2ccc(C)cc2)C(c2ccccc2C(F)(F)F)CC(=O)N1 (stereo not drawn) 3.89%
Cc1ccc(OCCSc2nc3ccccc3n2CC(=O)N2CCOCC2)cc1 -11.4%
CCOC(=O)c1noc2ncn(CC(=O)Nc3ccc(F)cc3Cl)c(=O)c12 12.1%
COc1ccc(-c2onc(C)c2C)cc1S(=O)(=O)NCc1cccs1 2.11%
CCOc1ccc(NC(=O)CSc2nnc3scc(-c4ccccc4)n23)cc1 0.388%
COC(=O)c1c(NC(=O)c2ccc(Cl)c(Cl)c2)sc2c1CCCC2 -12.4%
CCOC(=O)c1sc2ncn(CC(=O)Nc3ccc(F)cc3F)c(=O)c2c1C 2.12%
COc1ccc(OC)c(CNC(=O)CCCn2c(=O)c3cccn3c3cccnc32)c1 3.56%
Cc1oc(-c2ccccc2F)nc1Cn1c(SCc2cccc(C(F)(F)F)c2)nc2ccncc21 -7.38%
O=C(Nc1ccccc1F)c1cnc(N2CCCCC2)c2ccccc12 -8.98%
Cc1ccc(C(C)C)c(OCC(=O)Nc2cc(-c3nc4ccccc4[nH]3)ccc2C)c1 -14.6%
COc1ccccc1NC(=O)c1cc2c(=O)n(Cc3cccs3)ccc2nc1C 3.9%
Cc1cccc(-n2c(C)cc(C(=O)C(=O)Nc3nncs3)c2C)c1 0.184%
Cc1cc2c(cc1S(=O)(=O)Nc1ccc(C(C)C)cc1)OCCN2C -17.2%
COc1ccccc1-c1nnc(C2CCN(C(=O)c3ccccc3C)CC2)o1 12.4%
COc1cccc(-c2nc(CS(=O)(=O)CC(=O)Nc3cccc(C(C)=O)c3)c(C)o2)c1 -22.2%
COc1cc(CN(C(=O)c2ccc(OC(C)C)cc2)c2ccccn2)cc(OC)c1OC -5.51%
COC(=O)c1ccc(NC(=O)C2CCN(c3ncnc4c3nc3n4CCCCC3)CC2)cc1 -3.98%
Cc1cc2c(cc1C1(c3ccc(C(=O)O)cn3)CC1)C(C)(C)CCC2(C)C 2.01%
CCOC(=O)CSc1nc2ccc(NC(=O)c3ccc(Cl)cc3)cc2s1 -4.45%
CCOC(=O)c1cc(C)n(CC2CCC(C(=O)Nc3ccc(OC)cc3)CC2)c1C (stereo not drawn) -7.59%
COc1ccc(C)cc1NC(=O)c1cc(S(=O)(=O)N2CCC(C)CC2)ccc1F 1.39%
CCOC(=O)c1ccccc1NC(=O)CSc1nnc(CC)n2c1cc1occc12 -2.05%
CCCCc1ccc(C(=O)Nc2ccc3nc(N4CCN(CC)CC4)cc(C)c3c2)cc1 -6.58%
Cc1cc(C)cc(Nc2cc(C(=O)NC3CCCCC3)c3ccccc3n2)c1 4.44%
Cc1cc(Nc2nc3ccccc3c3nnc(C)n23)ccc1Br 1.6%
Cc1cc(C)cc(NC(=O)CSc2c(C(C)C)cnc3c2c(=O)n(C)c(=O)n3C)c1 -5.44%
Cc1ccccc1OCC(=O)Nc1ccc(-c2nc3ncccc3o2)cc1 -4.93%
Cc1cccc(C(=O)N2CCc3cc(CNS(=O)(=O)c4ccc(Cl)s4)ccc32)c1 3.58%
Cc1ccccc1Nc1ncnc2c1cnn2C -0.325%
CCCc1nc2ccccc2n2c(-c3ccccc3)c3c(=O)n(C)c(=O)n(C)c3c12 -1.82%
Cc1ccccc1CN1C(=O)c2ccccc2Sc2ccc(C(=O)N3CCCC3)cc21 -5.53%
COc1ccc(C)cc1-n1nnc(-c2nc(-c3ccccc3Cl)no2)c1N -10.5%
Cc1ccccc1NS(=O)(=O)c1ccc2[nH]cc(C(=O)N3CCCCC3)c(=O)c2c1 0.671%
CCCCn1nc(NC(=O)c2cccc(Cl)c2)c2cc3ccccc3nc21 -2.22%
O=C(NCc1ccccc1)c1ccc(CSc2nc3cccnc3n2Cc2cccc(F)c2)cc1 12.2%
O=C(NCc1ccc(F)cc1)c1ccc2c(O)c(S(=O)(=O)c3ccccc3)c(=O)[nH]c2c1 -1.93%
CCCCn1c(NCc2ccc(OC)cc2O)nc2ccccc21 10.3%
CC(C)c1ccc(C(=O)Nc2cc(-c3ccccc3F)nn2-c2ccccc2)cc1 -8.38%
CCN(C(=O)c1coc(=O)c2ccccc12)c1ccccc1C 46.6%
CCCOc1ccc(CNC(=O)Cn2ncn3c(cc4sc(CC)cc43)c2=O)cc1 -6.43%
COc1ccc(Nc2cc(C(=O)NC3CCC(C)CC3)c3ccccc3n2)cc1OC (stereo not drawn) -7.31%
CCOc1ccc(CNC(=O)c2ccc3nc(C(C)C)oc3c2)cc1 6.49%
O=C(c1ccc(C=Cc2n[nH]c3ccccc23)cc1)N1CCNCC1 6.64%
Cc1c(C(=O)N2CCCCCC2)c(S(=O)(=O)NCc2ccc(Br)cc2)c(C)n1C -4.17%
